{
  "source": "ChEMBL document CHEMBL4888484",
  "about": "“Replenishing the malaria drug discovery pipeline: Screening and hit evaluation of the MMV Hit Generation Library 1 (HGL1) against asexual blood stage Plasmodium falciparum ,using a nano luciferase reporter read-out” (2022)",
  "note": "Among all 150,000 compounds or so, about 540 (0.36%) showed an effect of 50% or more. The list shows a part of the results.",
  "data": [
    {"test_system": "Plasmodium falciparum", "assay": "Primary screen in NF54 nanoGlo assay, in single point, at 2uM, 72h; a lower Z score goes with more inhibition", "type": "functional, Erythrocyte", "conditions": "timepoint 72 hour", "units": {"% Inhibition": "%"}, "values": [
      {"compound": "COc1ccc(-n2nc(C)c3c2NC(=O)C[C@@H]3c2cccc(OC(C)C)c2)nn1", "% Inhibition": -5, "Z score": 0.67},
      {"compound": "CN(C)C1(CNc2ncc(F)cn2)CCCC1", "% Inhibition": -3, "Z score": 0.48},
      {"compound": "CC1CC(CS(=O)(=O)N2CCC(CN3CCCCC3=O)CC2)C1", "note": "(stereo not drawn)", "% Inhibition": -4, "Z score": 0.6},
      {"compound": "Cc1cc(C)n(CCNCc2cc3ccc(F)cc3n(CC(C)C)c2=O)n1", "% Inhibition": -7, "Z score": 0.94},
      {"compound": "CCc1cnc(C)nc1N1C[C@H](C(=O)O)[C@@H](C2CC2)C1", "% Inhibition": -7, "Z score": 1.41},
      {"compound": "CCc1cccc(/N=C(/NC(=O)c2ccccc2)N2CCN(c3cc(C)ccc3C)CC2)c1", "% Inhibition": -4, "Z score": 0.66},
      {"compound": "COc1cccc2c1CN(C(=O)COCc1cc(C)on1)C2", "% Inhibition": -9, "Z score": 1.09},
      {"compound": "CN(CCN1CCN2C(=O)C(=O)NC[C@H]2C1)Cc1ccc(F)cc1", "% Inhibition": 4, "Z score": -0.67},
      {"compound": "COC[C@H](NS(=O)(=O)NCc1ccccc1)c1ccnn1C", "% Inhibition": 4, "Z score": -0.47},
      {"compound": "Cc1ccsc1CNc1cccc(C(=O)NCCc2ccncc2)c1", "% Inhibition": 1, "Z score": -0.2},
      {"compound": "CCOC(=O)c1cc(NC(=O)CC(F)(F)F)[nH]n1", "% Inhibition": -11, "Z score": 1.02},
      {"compound": "C=CCn1c(=O)sc2cc(NC(=O)CC3CCCCC3)ccc21", "% Inhibition": -12, "Z score": 1.5},
      {"compound": "CCc1noc(CCNS(=O)(=O)CCOc2ccccc2F)n1", "% Inhibition": -10, "Z score": 0.99},
      {"compound": "CC[C@@H](C)[C@@H](CO)NC(=O)CC[C@@H]1NC(=O)N(Cc2ccc3c(c2)OCO3)C1=O", "% Inhibition": -15, "Z score": 1.93},
      {"compound": "CCc1noc([C@H](C)S(=O)(=O)Cc2ccn(-c3ccccc3)n2)n1", "% Inhibition": -19, "Z score": 2.2},
      {"compound": "O=C1CN(c2ccc(NC(=O)C3CCCCC3)cn2)CCN1", "% Inhibition": -15, "Z score": 1.35},
      {"compound": "Cc1ccc(NC2OC(C)C(O)C(O)C2O)cc1C", "note": "(stereo not drawn)", "% Inhibition": -14, "Z score": 1.9},
      {"compound": "O=C(c1ccc2c(c1)OCO2)N1CC(CN2C(=O)COC2=O)C1", "% Inhibition": 10, "Z score": -1.28},
      {"compound": "Cc1nccn1C1CN(C(=O)CCCc2ccccc2)C1", "% Inhibition": 10, "Z score": -1.74},
      {"compound": "COc1ccc([C@@H](O)C(=O)N2CCc3[nH]c(-c4ccccc4)nc3C2)cc1", "% Inhibition": -14, "Z score": 1.29},
      {"compound": "O=C(NCC1CCCC1O)Nc1nccs1", "note": "(stereo not drawn)", "% Inhibition": -4, "Z score": 0.52},
      {"compound": "N#Cc1c[nH]c(C(=O)N[C@H]2COCC[C@@H]2O)c1", "% Inhibition": -1, "Z score": 0.12},
      {"compound": "O=C(C1CCN(c2cncnc2N2CCCCC2)CC1)N1CCN(c2ccccn2)CC1", "% Inhibition": 10, "Z score": -1.86},
      {"compound": "Cc1cc(NS(=O)(=O)N2CCC(C)CC2)c[nH]c1=O", "% Inhibition": 5, "Z score": -0.69},
      {"compound": "O=C(NCc1ccccc1)C1CN(C(=O)c2cccc(Cl)c2)CC1c1cccc(C(F)(F)F)c1", "note": "(stereo not drawn)", "% Inhibition": -7, "Z score": 1.07},
      {"compound": "CCc1noc(C)c1C(=O)NCCOc1cccc2c1OC(C)(C)C2", "% Inhibition": 0, "Z score": 0.03},
      {"compound": "CCn1cc(CN2CCC(n3nccc3NC(=O)C3CCCC3)CC2)c(C)n1", "% Inhibition": -4, "Z score": 0.65},
      {"compound": "CN1C(=O)[C@H](CC(=O)NCc2cccnc2-n2ccnc2)N(C)C1=O", "% Inhibition": -6, "Z score": 1.11},
      {"compound": "COCCCNC(=O)c1cc(NC(=O)C(C)C)cc2nc(C)n(Cc3ccccc3)c12", "% Inhibition": -16, "Z score": 2.77},
      {"compound": "C=CCN(Cc1ccccn1)Cc1cn(CC=C)nc1C", "% Inhibition": 2, "Z score": -0.34},
      {"compound": "Cc1cc(Cn2ccc(-c3cccc(-c4cnn5cccnc45)c3)n2)no1", "% Inhibition": -5, "Z score": 0.61},
      {"compound": "O=C(c1cnccn1)N1CC[C@@]2(CCCN(CCC3CCCCC3)C2)C1", "% Inhibition": -7, "Z score": 0.71},
      {"compound": "Cc1cnc(-c2ccncc2)n1[C@H]1CCN(C(=O)C2CCCCC2)C1", "% Inhibition": 0, "Z score": 0.06},
      {"compound": "CCCN1C[C@@H](Nc2ncc(F)cn2)CC1=O", "% Inhibition": -8, "Z score": 1.6},
      {"compound": "Cc1nccn1CCCCNC(=O)N1CC(C)(C)OC(C)(C)C1", "% Inhibition": -12, "Z score": 1.26},
      {"compound": "COc1ccc(NC(=O)Cn2cnc3nc(N4CCCCC4)ncc3c2=O)c(OC)c1", "% Inhibition": 36, "Z score": -4.05},
      {"compound": "O=C(COCC(F)(F)C(F)F)NCc1cnn(-c2cccc(F)c2)c1", "% Inhibition": -3, "Z score": 0.49},
      {"compound": "COCc1ccc(S(=O)(=O)Cc2nc(C3CC3)n[nH]2)cc1", "% Inhibition": -10, "Z score": 0.85},
      {"compound": "Cc1cncnc1C1CCN(C(=O)CCNS(C)(=O)=O)CC1", "% Inhibition": -5, "Z score": 0.73},
      {"compound": "O=C(N[C@H]1CO[C@H]2[C@@H]1OC[C@@H]2Nc1nccc(-c2ccc(-c3ccccc3)cc2)n1)C1CCCCC1", "% Inhibition": 30, "Z score": -3.42},
      {"compound": "Cc1csc(CNC(=O)N(C)Cc2cc(C)on2)n1", "% Inhibition": -2, "Z score": 0.33},
      {"compound": "Cc1cc(CNc2cncc(-n3cncn3)n2)ccc1Cl", "% Inhibition": -19, "Z score": 3.07},
      {"compound": "CCOC(=O)c1sc(=S)n(C)c1NC(=O)c1ccccc1", "% Inhibition": -4, "Z score": 0.53},
      {"compound": "CC(C)c1nc(CN2C[C@@H](c3cccc(F)c3)OCC2(C)C)no1", "% Inhibition": -12, "Z score": 1.83},
      {"compound": "CCCc1nc(CS(=O)(=O)c2cncc(Br)c2)no1", "% Inhibition": -1, "Z score": 0.12},
      {"compound": "O=C1NC[C@H]2O[C@H](CCOc3ccccc3C(=O)N3CCN(C4CCCC4)C[C@@H]13)CC[C@H]2n1cc(CN2CCOCC2)nn1", "% Inhibition": 17, "Z score": -2.01},
      {"compound": "CCc1ccc(C2CN3C(=O)N(c4ccccc4Cl)C(=O)[C@]3(C)c3[nH]c4ccccc4c32)cc1", "note": "(stereo partly drawn)", "% Inhibition": 9, "Z score": -0.76},
      {"compound": "c1ccc2c(c1)CCN(CCn1cccn1)C2", "% Inhibition": -6, "Z score": 0.79},
      {"compound": "Cc1ncccc1NC1CCCC1S(C)(=O)=O", "note": "(stereo not drawn)", "% Inhibition": -17, "Z score": 2.11},
      {"compound": "CC(C)Cn1cc(C(=O)NC[C@H]2CCC[C@@H](CO)C2)cn1", "% Inhibition": -6, "Z score": 0.89},
      {"compound": "CCCc1nc(N2CCC(N3CCN(CC)CC3)CC2)no1", "% Inhibition": -4, "Z score": 0.56},
      {"compound": "O=C(Cn1cc(-c2ccc(F)cc2)cn1)NCc1ccnc(N2CCCC2=O)c1", "% Inhibition": -6, "Z score": 0.97},
      {"compound": "CCCc1cc(N2CCN(C(=O)COc3ccc(F)cc3)CC2)nc2nnc(C)n12", "% Inhibition": -6, "Z score": 0.85},
      {"compound": "Nc1c2c(-c3ccc(Cl)cc3)nc(NCC3CC3)nc2nn1-c1ccc(Cl)cc1", "% Inhibition": -18, "Z score": 1.7}
    ]}
  ]
}
